Test results: US20220332824A1 (published 2022)
Blank lines part the entries; values can stand above or below the binder they belong to.

How the values were obtained:
CD47 = CD47 (UniProt Q08722); experiment: FACS binding, CHO-K1 cells expressing CD47
human PD-1 = human PD-1 (human, UniProt Q15116 25-288); experiment: FACS binding, CHO-K1 cells expressing human PD-1
human PD-1, sequence (Q15116 25-288): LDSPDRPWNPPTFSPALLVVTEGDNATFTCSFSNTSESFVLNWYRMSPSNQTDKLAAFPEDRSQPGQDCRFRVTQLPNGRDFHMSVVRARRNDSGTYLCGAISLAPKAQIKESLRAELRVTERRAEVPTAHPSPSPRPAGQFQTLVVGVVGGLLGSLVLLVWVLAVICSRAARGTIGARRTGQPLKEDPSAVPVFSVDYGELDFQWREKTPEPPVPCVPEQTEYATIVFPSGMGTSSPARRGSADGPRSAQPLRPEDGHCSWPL

CD47, sequence (Q08722 19-323): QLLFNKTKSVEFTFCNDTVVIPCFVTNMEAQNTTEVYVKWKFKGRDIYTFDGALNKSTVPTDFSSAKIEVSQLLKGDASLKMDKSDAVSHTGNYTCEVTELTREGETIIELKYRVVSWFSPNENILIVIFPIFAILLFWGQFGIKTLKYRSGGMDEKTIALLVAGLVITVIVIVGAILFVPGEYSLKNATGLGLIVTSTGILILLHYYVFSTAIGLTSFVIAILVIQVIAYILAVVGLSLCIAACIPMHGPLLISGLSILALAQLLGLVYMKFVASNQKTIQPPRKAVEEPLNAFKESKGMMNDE

EC50 (CD47): ~63.8 nM
EC50 (human PD-1): 4.73 nM
B1: Fc fusion protein sdAb-PD1b-IgG4PE (Fc fusion)
chain: EVQLVESGGGLVQPGGSLRLSCAVSGNIYNRNFMGWFRQAPGKGLEGVSAIYTGTSRTYYADSVKGRFTISRDNSKNTVYLQMNSLRAEDTAVYYCAADLREGFWDTGVWNTWGQGTLVTVSS[human IgG4 Fc with changes not written out]

EC50 (human PD-1): 9.97 nM
B2: Fc fusion protein sdAb-PD1a-IgG4PE (Fc fusion)
chain: EVQLVESGGGLVQPGGSLRLSCAVSGNIYNRNFMGWFRQAPGKGREGVSAIYTGTSRTYYADSVKGRFTISRDNAKNTVYLQMNSLRPEDTAVYYCAADLRDGFWDTGVWNTWGQGTLVTVSS[human IgG4 Fc with changes not written out]
